Measurements as given in the RNAGym collection of RNA variant scans (doi:10.1073/pnas.2313332121).
This sample is rich in variants without activity.

B1: TPR 5TU (parent)
chain: GGAUCUUCUCGAUCUAACAAAAAAGACAAAUCUGCCACAAAGCUUGAGAGCAUCUUCGGAUGCAGAGGCGGCAGCCUUCGGUGGCGCGAUAGCGCCAACGUUCUCAACUAUGACACGCAAAACGCGUGCUCCGUUGAAUGGAGUUUAUCAUG

Variants of: B1
Experiment: polymerase ribozyme fitness, log enrichment relative to wild type (log ratio); higher = more active; in vitro selection for triplet polymerase activity
Summary of the method: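 After PCR construction and transcription, each subunit's mutant library from a heterodimeric triplet polymerase ribozyme was annealed with a biotinylated primer, the partner subunit and triplets. Incubation was frozen, at −7 °C, and extended constructs were gel-excised, bound to streptavidin beads and amplified by RT-PCR, in one selection round done in triplicate. Fitness is the logarithm of a genotype's enrichment divided by that of the wild type, from inverse-variance-weighted replicate averages of Illumina-sequenced inputs and outputs. The base of the logarithm is 2, and genotypes needed ≥10 input reads and ≥1 read per output.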

Variant	polymerase ribozyme fitness (log ratio)
U53A U77C G92U C108G C149U	≤ -4.2
U53A U77C G92U U109C A122C G126U C149U	≤ -4.2
U53A U90A C96U C114U A115C	≤ -4.2
U53A U101G C125A	-0.788
U53A U130G A142C	-0.549
U53A U146G	-2.38
U53C A73G G84A U109G G140C	≤ -4.2
U53C C57G C125U G143A	-3.67
U53C C76A A107G C108A C149U	≤ -4.2
U53C C87U A98U G100C C116A G143U	≤ -4.2
U53C C93G C99G C118A G126A U146G	≤ -4.2
U53C G74A C79U G81U A91U G94C A97U	≤ -4.2
U53G A64G C76A	≤ -4.2
U53G A66G C93G C108G	≤ -4.2
U53G A66G G94C G117U	≤ -4.2
U53G A115C G143A	-4.06
U53G C54U C96G A113C G140U	≤ -4.2
U53G C57A C85U A115U A121C	-2.93
U53G C57G G70C C79G A89U A91U C93U	≤ -4.2
U53G C72G C108G C116A	≤ -4.2
U53G C87G	≤ -4.2
U53G C87G G133U	≤ -4.2
U53G C93A	≤ -4.2
U53G G58A G59A U82G G88U A142G	≤ -4.2

Variant	polymerase ribozyme fitness (log ratio)
U53G G62C C85U U109C	≤ -4.2
U53G G68C A73C C85G C96U U102G C108G A119U U148C	≤ -4.2
U53G G84A	-2.52
U53G G92U G143U U144A	-3.84
U53G U55A C79U G86A G88A C103U U148C	≤ -4.2
U53G U55A U78A C93U A142C U148C	≤ -4.2
U53G U56A U61A G88U G117A G124U	≤ -4.2
U53G U90G G100A G124A U144C	≤ -4.2
C54A A60G G65U A119U	≤ -4.2
C54A A60U C72U G86C U102G A122U C149G	≤ -4.2
C54A A64U U90C A91C	≤ -4.2
C54A A66C C79A A91G G94A A113C	≤ -4.2
C54A A66U G86C A89C C96A	≤ -4.2
C54A A73G C85G C99U U148C	≤ -4.2
C54A A89C C132G	≤ -4.2
C54A A89U G92C A121U	-3
C54A A122U C123A G133C G143C A150G	≤ -4.2
C54A C57G U82G C85A A120C G136A U144A U148A	≤ -4.2
C54A C57G U90G U139A G140U U146A	≤ -4.2
C54A C57U G59U	-0.27
C54A C57U G86A A89G A120G G136C	≤ -4.2
C54A C63U C99A A115U A142U	≤ -4.2
C54A C69A G84A G88A	≤ -4.2
C54A C69U C72U A142C	≤ -4.2

Variant	polymerase ribozyme fitness (log ratio)
C54A C76A G83U	≤ -4.2
C54A C76A G84A	≤ -4.2
C54A C79U C93A A113U U127G	≤ -4.2
C54A C85U A121G U134A A138G A150U	≤ -4.2
C54A C87G A115U U148C	≤ -4.2
C54A C87U U148A G152C	≤ -4.2
C54A C95A G140A U146G	≤ -4.2
C54A C95U A119G C125G A150G	≤ -4.2
C54A C99A G141U	-2.47
C54A C103A G128A C129U	≤ -4.2
C54A C108G U139A	≤ -4.2
C54A G59C G84A	-0.321
C54A G59U A91G U135A	-3.95
C54A G67U	-4
C54A G80A C103G A110U A120U C132G	≤ -4.2
C54A G81U U82A C108A C123U U134G A137C	≤ -4.2
C54A G84A A142C	-4.19
C54A G88C	-3.99
C54A G88U U134C	≤ -4.2
C54A G94C A138C	≤ -4.2
C54A G141A	-0.156
C54A U55A G62U C85A A120U G140U	≤ -4.2
C54A U55G G80C G84U C105G G126C	≤ -4.2
C54A U56A G68U U82G G83C G133C	≤ -4.2

Variant	polymerase ribozyme fitness (log ratio)
C54A U56G A110U U145G	≤ -4.2
C54A U61A G67A C75A G80U C96A	≤ -4.2
C54A U90A	≤ -4.2
C54A U101G U134C U139G U144A	-1.85
C54A U104A C131U	-2.14
C54A U109G A110C	≤ -4.2
C54G A91U A147G U148G	≤ -4.2
C54G A138U	≤ -4.2
C54G A142U	-1.98
C54G C57A A66C A91U G92A U104C A120C G136U G140A	≤ -4.2
C54G C57U A73U C96G	≤ -4.2
C54G C57U C76A C95U C105A C129A	≤ -4.2
C54G C63A G81A G83A	≤ -4.2
C54G C79G	≤ -4.2
C54G C85A	-3.85
C54G C85U A121U C131A G136U A137G	≤ -4.2
C54G C87A C108G A138U G143C	≤ -4.2
C54G C87A G100A A106G C118G A121G U151G	≤ -4.2
C54G C87U A106U A137U G140U A142C	≤ -4.2
C54G C95G G133A	≤ -4.2
C54G C95U	-2.35
C54G C96A	-2.41
C54G C96A A98G A106U A138C U139C	≤ -4.2
C54G C96U C123G	-1.53

Variant	polymerase ribozyme fitness (log ratio)
C54G C103A G140C	≤ -4.2
C54G G58A C79U G86U C87U C93A U135A G136C	≤ -4.2
C54G G58C C75G G94A	≤ -4.2
C54G G68A C93A G117A U134A G141C	≤ -4.2
C54G G68C U109G C132U G133U	≤ -4.2
C54G G70C C85U A110C	≤ -4.2
C54G G71A G84U U102C C125U U146C U151C	≤ -4.2
C54G G74C C93G	≤ -4.2
C54G G80C G81A C85U C129A U135C	≤ -4.2
C54G G80U A115G	≤ -4.2
C54G G86U G100C G140C U144A	≤ -4.2
C54G G88A C93G G94U A97U C118G C132A U146C	≤ -4.2
C54G U55A A89U C118G A142C	-3.87
C54G U56A A107U	≤ -4.2
C54G U82A	-1.98
C54G U102C U144A	-3.91
C54G U109C C116U C131U A147U	-1.86
C54U A60G C95U	-0.803
C54U A60U C87U G94U U101G U109C C116U C118U G152C	≤ -4.2
C54U A64G G68A U77C G83A G88U U90G C132U U139G	≤ -4.2
C54U A73G U102G A121U	≤ -4.2
C54U A89G C95A U148G	-4.18
C54U A91U U102G	≤ -4.2
C54U C57A	-0.253

Variant	polymerase ribozyme fitness (log ratio)
C54U C57A A64U C87A G141A	≤ -4.2
C54U C57U C79A C85U C93G A107G C123G	≤ -4.2
C54U C63G A66C G68U C69G C87G C96G	≤ -4.2
C54U C63U G88C A107U G152U	≤ -4.2
C54U C69A G71A U82G C99U A110U A122U	≤ -4.2
C54U C69U C85U A110G G141C	≤ -4.2
C54U C75A C96A U101G C103A U135C	≤ -4.2
C54U C75U C76G C93U U101G C105A G152C	≤ -4.2
C54U C76A G83A A89U A113U G124C	≤ -4.2
C54U C76G C85A U139G G143A	≤ -4.2
C54U C79G C85U U148A	≤ -4.2
C54U C85G	-2.49
C54U C85U C95A	-1.84
C54U C85U C129U	-0.134
C54U C87A A89C C108U G141A G143C	≤ -4.2
C54U C87U A115U	-1.85
C54U C93A G117A A150C	≤ -4.2
C54U C93G A142C U148A	≤ -4.2
C54U C95G	-1.07
C54U C95G A98G	-2.01
C54U C95U	-0.851
C54U C96U C118U	-0.868
C54U C96U U144G	0.217
C54U C105A C131G	≤ -4.2

Variant	polymerase ribozyme fitness (log ratio)
C54U C108A	≤ -4.2
C54U C118U C125U U139A	≤ -4.2
C54U G58A	0.498
C54U G58C C87G C99G C103G U135G	≤ -4.2
C54U G58U C79G C85G C96A G126A	≤ -4.2
C54U G59C A60G A122U	0.186
C54U G59U C108A U135G U139A	≤ -4.2
C54U G65U A73U A91U C108G	≤ -4.2
C54U G67A A91U A97G G100A U101C U109G	≤ -4.2
C54U G67U U139G A150G	≤ -4.2
C54U G68A C69U G81A A91G C103G A110G	≤ -4.2
C54U G68C	≤ -4.2
C54U G70A G83A U90A G143U	≤ -4.2
C54U G70C C76U G83C G128C A138C G141C A147U A150G	≤ -4.2
C54U G71U G80C G92U A110C	≤ -4.2
C54U G81A C87G	≤ -4.2
C54U G83U C85A U90G	≤ -4.2
C54U G83U C95U U111G U134G	≤ -4.2
C54U G84A A89G A98U G133U A142G	≤ -4.2
C54U G84A A97U	-1.27
C54U G84A A110U	≤ -4.2
C54U G84A U146G	-1.56
C54U G88C C96G A138C G141A	≤ -4.2
